# Results from the supplement of paper PMC8728848.
# This is one part of the list.
# Tests used:
# Test in all cases: glycan array binding signal (z-score within array); higher = stronger binding
# Conditions in all cases: glycan notation: IUPAC condensed, linker removed; mutation: E227A
# [1] = target: GlcNAc(a1-6)Gal(b1-4)GlcNAc
# In short: (§1)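 Columns mapping to the same glycan were averaged after glycan names were converted to IUPAC-condensed notation. The data come from 3228 arrays in the Consortium for Functional Glycomics database, limited to those with an available protein sequence. Binding is reported as a within-array Z-score averaged across arrays of one protein sequence and across linkers.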
# [2] = target: GlcNAc(b1-2)Gal(b1-3)GalNAc
# In short: as §1
# [3] = target: GlcNAc(b1-2)Man(a1-3)[GlcNAc(b1-2)Man(a1-6)]Man(b1-4)GlcNAc(b1-4)GlcNAc
# In short: as §1
# [4] = target: GlcNAc(b1-2)Man(a1-3)[GlcNAc(b1-2)Man(a1-6)]Man(b1-4)GlcNAc(b1-4)[Fuc(a1-6)]GlcNAc
# In short: as §1
# [5] = target: GlcNAc(b1-2)Man(a1-3)[GlcNAc(b1-4)][GlcNAc(b1-2)Man(a1-6)]Man(b1-4)GlcNAc(b1-4)GlcNAc
# In short: as §1
# [6] = target: GlcNAc(b1-2)Man(a1-3)[GlcNAc(b1-4)][GlcNAc(b1-2)Man(a1-6)]Man(b1-4)GlcNAc(b1-4)[Fuc(a1-6)]GlcNAc
# In short: as §1
# [7] = target: GlcNAc(b1-2)[GlcNAc(b1-4)]Man(a1-3)[GlcNAc(b1-2)Man(a1-6)]Man(b1-4)GlcNAc(b1-4)GlcNAc
# In short: as §1
# [8] = target: GlcNAc(b1-2)[GlcNAc(b1-4)]Man(a1-3)[GlcNAc(b1-4)][GlcNAc(b1-2)Man(a1-6)]Man(b1-4)GlcNAc(b1-4)GlcNAc
# In short: as §1
# [9] = target: GlcNAc(b1-2)[GlcNAc(b1-4)]Man(a1-3)[GlcNAc(b1-4)][GlcNAc(b1-2)[GlcNAc(b1-6)]Man(a1-6)]Man(b1-4)GlcNAc(b1-4)GlcNAc
# In short: as §1
# [10] = target: GlcNAc(b1-2)[GlcNAc(b1-4)]Man(a1-3)[GlcNAc(b1-4)][GlcNAc(b1-2)[GlcNAc(b1-6)]Man(a1-6)]Man(b1-4)GlcNAc(b1-4)[Fuc(a1-6)]GlcNAc
# In short: as §1
# [11] = target: GlcNAc(b1-2)[GlcNAc(b1-6)]Man(a1-6)[GlcNAc(b1-2)Man(a1-3)]Man(b1-4)GlcNAc(b1-4)GlcNAc
# In short: as §1
# [12] = target: GlcNAc(b1-2)[GlcNAc(b1-6)]Man(a1-6)[GlcNAc(b1-2)Man(a1-3)]Man(b1-4)GlcNAc(b1-4)[Fuc(a1-6)]GlcNAc
# In short: as §1
# [13] = target: GlcNAc(b1-2)[GlcNAc(b1-6)]Man(a1-6)[GlcNAc(b1-4)][GlcNAc(b1-2)Man(a1-3)]Man(b1-4)GlcNAc(b1-4)GlcNAc
# In short: as §1
# [14] = target: GlcNAc(b1-3)Fuc
# In short: as §1
# [15] = target: GlcNAc(b1-3)Gal
# In short: as §1
# [16] = target: GlcNAc(b1-3)Gal(b1-3)GalNAc
# In short: as §1
# [17] = target: GlcNAc(b1-3)Gal(b1-4)Glc
# In short: as §1
# [18] = target: GlcNAc(b1-3)Gal(b1-4)GlcNAc
# In short: as §1
# [19] = target: GlcNAc(b1-3)Gal(b1-4)GlcNAc(b1-2)Man(a1-3)[GlcNAc(b1-3)Gal(b1-4)GlcNAc(b1-2)Man(a1-6)]Man(b1-4)GlcNAc(b1-4)GlcNAc
# In short: as §1
# [20] = target: GlcNAc(b1-3)Gal(b1-4)GlcNAc(b1-2)Man(a1-3)[GlcNAc(b1-3)Gal(b1-4)GlcNAc(b1-2)Man(a1-6)]Man(b1-4)GlcNAc(b1-4)[Fuc(a1-6)]GlcNAc
# In short: as §1
# [21] = target: GlcNAc(b1-3)Gal(b1-4)GlcNAc(b1-2)[GlcNAc(b1-3)Gal(b1-4)GlcNAc(b1-6)]Man(a1-6)[GlcNAc(b1-3)Gal(b1-4)GlcNAc(b1-2)Man(a1-3)]Man(b1-4)GlcNAc(b1-4)GlcNAc
# In short: as §1
# [22] = target: GlcNAc(b1-3)Gal(b1-4)GlcNAc(b1-3)Gal(b1-4)GlcNAc
# In short: as §1
# [23] = target: GlcNAc(b1-3)Gal(b1-4)GlcNAc(b1-3)Gal(b1-4)GlcNAc(b1-2)Man(a1-3)[GlcNAc(b1-3)Gal(b1-4)GlcNAc(b1-3)Gal(b1-4)GlcNAc(b1-2)Man(a1-6)]Man(b1-4)GlcNAc(b1-4)GlcNAc
# In short: as §1
# [24] = target: GlcNAc(b1-3)Gal(b1-4)GlcNAc(b1-3)Gal(b1-4)GlcNAc(b1-2)Man(a1-3)[GlcNAc(b1-3)Gal(b1-4)GlcNAc(b1-3)Gal(b1-4)GlcNAc(b1-2)Man(a1-6)]Man(b1-4)GlcNAc(b1-4)[Fuc(a1-6)]GlcNAc
# In short: as §1
# [25] = target: GlcNAc(b1-3)Gal(b1-4)GlcNAc(b1-3)Gal(b1-4)GlcNAc(b1-2)[GlcNAc(b1-3)Gal(b1-4)GlcNAc(b1-3)Gal(b1-4)GlcNAc(b1-6)]Man(a1-6)[GlcNAc(b1-3)Gal(b1-4)GlcNAc(b1-3)Gal(b1-4)GlcNAc(b1-2)Man(a1-3)]Man(b1-4)GlcNAc(b1-4)[Fuc(a1-6)]GlcNAc
# In short: as §1
# [26] = target: GlcNAc(b1-3)Gal(b1-4)GlcNAc(b1-3)Gal(b1-4)GlcNAc(b1-3)Gal(b1-4)GlcNAc(b1-2)Man(a1-3)[GlcNAc(b1-3)Gal(b1-4)GlcNAc(b1-3)Gal(b1-4)GlcNAc(b1-3)Gal(b1-4)GlcNAc(b1-2)Man(a1-6)]Man(b1-4)GlcNAc(b1-4)GlcNAc
# In short: as §1
# [27] = target: GlcNAc(b1-3)Gal(b1-4)GlcNAc(b1-3)Gal(b1-4)GlcNAc(b1-3)Gal(b1-4)GlcNAc(b1-2)Man(a1-3)[GlcNAc(b1-3)Gal(b1-4)GlcNAc(b1-3)Gal(b1-4)GlcNAc(b1-3)Gal(b1-4)GlcNAc(b1-2)Man(a1-6)]Man(b1-4)GlcNAc(b1-4)[Fuc(a1-6)]GlcNAc
# In short: as §1
# [28] = target: GlcNAc(b1-3)Gal(b1-4)GlcNAc(b1-3)Gal(b1-4)GlcNAc(b1-3)Gal(b1-4)GlcNAc(b1-2)[GlcNAc(b1-3)Gal(b1-4)GlcNAc(b1-3)Gal(b1-4)GlcNAc(b1-3)Gal(b1-4)GlcNAc(b1-6)]Man(a1-6)[GlcNAc(b1-3)Gal(b1-4)GlcNAc(b1-3)Gal(b1-4)GlcNAc(b1-3)Gal(b1-4)GlcNAc(b1-2)Man(a1-3)]Man(b1-4)GlcNAc(b1-4)[Fuc(a1-6)]GlcNAc
# In short: as §1
# [29] = target: GlcNAc(b1-3)Gal(b1-4)GlcNAc(b1-3)Gal(b1-4)GlcNAc(b1-3)Gal(b1-4)GlcNAc(b1-3)Gal(b1-4)GlcNAc(b1-2)Man(a1-3)[GlcNAc(b1-3)Gal(b1-4)GlcNAc(b1-3)Gal(b1-4)GlcNAc(b1-3)Gal(b1-4)GlcNAc(b1-3)Gal(b1-4)GlcNAc(b1-2)Man(a1-6)]Man(b1-4)GlcNAc(b1-4)GlcNAc
# In short: as §1
# [30] = target: GlcNAc(b1-3)Gal(b1-4)GlcNAc(b1-3)Gal(b1-4)GlcNAc(b1-3)Gal(b1-4)GlcNAc(b1-3)Gal(b1-4)GlcNAc(b1-2)Man(a1-3)[GlcNAc(b1-3)Gal(b1-4)GlcNAc(b1-3)Gal(b1-4)GlcNAc(b1-3)Gal(b1-4)GlcNAc(b1-3)Gal(b1-4)GlcNAc(b1-2)Man(a1-6)]Man(b1-4)GlcNAc(b1-4)[Fuc(a1-6)]GlcNAc
# In short: as §1
binder,measurement,setting,value
"Epa1-NP-mutant-E227A (Candida glabrata), Q6VBJ0 (protein) MILNPALFLNKCVCIYTTLILLLLTNGGYATSSNDISLASKDPTTFPLGCSPDITTPKKGLSMELYSYDFRKKGSYPCWDAAYLDPNYPRTGYKSHRLLAKVDGVTGNINFYYHATKGCTPQLGHLPASYNYPKPLTMTNFTMLLYGYFRPKVTGFHTFTISADDLLFVNFGAGNAFDCCRRDSSADHFGNYQAYAIWGSKTAKDELTVHLDAGVYYPIRLFYNNRAYDGALSFTFKTESNENTVSDFSEYFFSLDDTEEGCPGLISYDSSCASVKTSKIIGIDYHTETPNENLVPITKTIYHLGIPCTGTTTTPLCGSGFYDPLANKCVTINTSSTSSVTKTTSHTTSKEVSFHSSISSQKTLIPKSIPSPYGPIKSQSIPTEMETSSEISSSEYAFSDVISTPSHSPYTKKHSSLNSSSYTSTVIHSLTSYSISQGIFSTSLSEQNITSKSSTDKFSTATSMSNNITQSSIIISQFSTNNENYTTTSMHTSSDKISTETLNNSISTTTSILFSNSSTILKNNTTIISSDKDTHYHPVNPTIVCSTNKTEIICASITQPSISNSNNHWSSSVLKFNSTTVRSTLPSSAGSNETSINVPFSSSTESNTSTSSTSTSNSKMVRSTLPSSAGSNETSISVPFSSSTESNTSTSSTSTSNSKMVRSTLPSSAGSNETSINVPFSSSTESNTSTSSTSTSNSKTVRSTPFSSAGIIMTSLSQRNNKSASSYASSNSKCYNTADSCRKVHSTPSYLLTSSYTSEGVDYDCSLVSTKLKINDTNCVNNKHTTKSCLKTSVTTTIPTLEIKTARKSSSNTIGLHSYPTSSPNKSISSAPIIGYISSFKTIKTASPSYQTSDLTTITTITSLNNPGSTAVENTHESNDKSRKTSSNDISSKHSVIKETKDAVESSNKSHQTNTLKCSSIIIASSSHNSYESLGGTTLTLTLSKVYSPQNNDTLPFLEISEVNPSRTVLPESSKMMQYLTSTEERNKTARNTIATNIVSISTFHFEGEGNAIRMGYTQLLLMLIGIIVMNIGT",glycan array binding signal (z-score),[1],0.396
same,glycan array binding signal (z-score),[2],-0.184
same,glycan array binding signal (z-score),[3],-0.191
same,glycan array binding signal (z-score),[4],-0.177
same,glycan array binding signal (z-score),[5],-0.226
same,glycan array binding signal (z-score),[6],-0.194
same,glycan array binding signal (z-score),[7],-0.188
same,glycan array binding signal (z-score),[8],-0.177
same,glycan array binding signal (z-score),[9],-0.19
same,glycan array binding signal (z-score),[10],-0.172
same,glycan array binding signal (z-score),[11],-0.207
same,glycan array binding signal (z-score),[12],-0.165
same,glycan array binding signal (z-score),[13],-0.207
same,glycan array binding signal (z-score),[14],-0.185
same,glycan array binding signal (z-score),[15],-0.221
same,glycan array binding signal (z-score),[16],-0.176
same,glycan array binding signal (z-score),[17],-0.205
same,glycan array binding signal (z-score),[18],-0.206
same,glycan array binding signal (z-score),[19],-0.172
same,glycan array binding signal (z-score),[20],-0.157
same,glycan array binding signal (z-score),[21],-0.191
same,glycan array binding signal (z-score),[22],-0.198
same,glycan array binding signal (z-score),[23],-0.183
same,glycan array binding signal (z-score),[24],-0.143
same,glycan array binding signal (z-score),[25],-0.163
same,glycan array binding signal (z-score),[26],-0.193
same,glycan array binding signal (z-score),[27],-0.136
same,glycan array binding signal (z-score),[28],-0.17
same,glycan array binding signal (z-score),[29],-0.193
same,glycan array binding signal (z-score),[30],-0.197
